# Where a name gives a salt, the structure may show the parent alone. ± gives the standard deviation of the averaged measurements. Whole data set: some 3,200 compounds, median “nuclei count (viability) relative to DMSO” near 99, cut for the lowest 2% near 16. Some of the results follow.
# System: U2OS
# Test: nuclei count (viability) relative to DMSO (% of DMSO); higher = more viable cells
# Settings: 10 µM; 24 h
# Experimental: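 Primary image-based screen in U2OS cells: compounds at 10 uM for 24 h, then a 1 h o-propargyl-puromycin (OPP) pulse, click labelling, and high-throughput microscopy. Mean cytoplasmic OPP intensity and nuclei count were normalised to DMSO wells within each plate (DMSO = 100) and averaged over triplicate plates.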
row,SMILES,nuclei count
1,Cn1cnc2c(F)c(Nc3ccc(Br)cc3Cl)c(C(=O)NOCCO)cc21 [AZD6244 (Selumetinib)],97.5
2,CC1(C)O[C@@H]2C[C@H]3[C@@H]4C[C@H](F)C5=CC(=O)C=C[C@]5(C)[C@H]4[C@@H](O)C[C@]3(C)[C@]2(C(=O)CO)O1 [Flunisolide],100
3,Cc1ccc2c(c1)c1c(n2CCc2ccc(C)nc2)CCN(C)C1 [Dimebon (Latrepirdine)],95.3
4,COc1ccc(CNc2nc(N3CCC[C@H]3CO)ncc2C(=O)NCc2ncccn2)cc1Cl [Avanafil],106
5,CC(=O)OCC(=O)[C@@]1(O)CC[C@H]2[C@@H]3CCC4=CC(=O)C=C[C@]4(C)[C@H]3[C@@H](O)C[C@@]21C [Prednisolone acetate (Omnipred)],112
6,O=C1NC(c2cccc([N+](=O)[O-])c2)=CCN1c1ccccc1O [Icilin],101
7,CCCN(CC1CC1)c1nc(C)nc(Nc2c(Cl)cc(Cl)cc2Cl)c1Cl,103
8,CN1CCN(C(=O)c2cc3cc(Cl)ccc3[nH]2)CC1,102
9,N#CC1(c2ccc(NC(=O)c3cccnc3NCc3ccncc3)cc2)CCCC1 [Apatinib (YN968D1)],102
10,CCCNC(=O)N1N=C(c2ccc(N)cc2)c2cc3c(cc2C1C)OCO3 (centres undefined),93
11,Cc1c(Nc2ncccc2C(=O)O)cccc1C(F)(F)F [Flunixin meglumine],97
12,CC[C@H](c1ccc(O)cc1)[C@@H](CC)c1ccc(O)cc1 [Hexestrol],102
13,CC[C@H](c1ccc(O)cc1)[C@@H](CC)c1ccc(O)cc1 [Hexestrol (Bibenzyl)],101
14,COc1ccc(Br)cc1S(=O)(=O)NC(=O)/C=C/c1ccccc1Cc1ccc2ccccc2c1,104
15,CN1CCN(C(=O)c2nc3ccc(Cl)cc3[nH]2)CC1,88.3
16,Nc1ncn(C2CC(O)C(CO)O2)c(=O)n1 (centres undefined) [5-Aza-2-deoxycytidine],95.1
17,CN(C(=O)CCCOc1ccc2[nH]c(=O)ccc2c1)C1CCCCC1 [Cilostamide],103
18,NNC(=O)c1ccncc1 [Isoniazid],89.2
19,O=C(Nc1ncc(SCCN2CCCC2)s1)[C@]1(c2ccc(S(=O)(=O)C3CC3)cc2)C[C@H]1C1CCCCC1,61.2
20,O=C(O)CCCN1CCC(O[C@@H](c2ccc(Cl)cc2)c2ccccn2)CC1 [Bepotastine Besilate],104

row,SMILES,nuclei count
1,CCC(=O)OCC(=O)[C@@]1(OC(=O)CC)[C@@H](C)C[C@H]2[C@@H]3CCC4=CC(=O)C=C[C@]4(C)[C@@]3(F)[C@@H](O)C[C@@]21C [Betamethasone Dipropionate (Diprolene)],107
2,CC1(C)O[C@@H]2C[C@H]3[C@@H]4C[C@H](F)C5=CC(=O)CC[C@]5(C)[C@H]4[C@@H](O)C[C@]3(C)[C@]2(C(=O)CO)O1 [Flurandrenolide],110
3,C[C@H]1C[C@H]2[C@@H]3CCC4=CC(=O)C=C[C@]4(C)[C@H]3C(=O)C[C@]2(C)[C@@]1(O)C(=O)CO [Betapar (Meprednisone)],107
4,Cc1ccc(S(=O)(=O)OCC(=O)Nc2ccc(C(=O)O)c(O)c2)cc1,106
5,O=c1[nH]c(=O)n([C@H]2C[C@H](O)[C@@H](CO)O2)cc1I [Idoxuridine],96.9
6,CN1CCN(c2ccc3nc(-c4c(N)c5c(F)cccc5[nH]c4=O)[nH]c3c2)CC1 [Dovitinib (TKI-258)],72 ± 36
7,C=CCNC1=C2C[C@@H](C)C[C@H](OC)[C@H](O)[C@@H](C)/C=C(\C)[C@H](OC(N)=O)[C@@H](OC)/C=C\C=C(/C)C(=O)NC(=CC1=O)C2=O,39.3
8,Cc1cccc(N(C)C(=S)Oc2ccc3ccccc3c2)c1 [Tolnaftate],102
9,O=C(O)c1cccnc1 [Niacin],105
10,CCCCc1oc2ccccc2c1C(=O)c1cc(I)c(OCCN(CC)CC)c(I)c1 [Amiodarone hydrochloride],89.8
11,CCCCc1oc2ccccc2c1C(=O)c1cc(I)c(OCCN(CC)CC)c(I)c1 [Amiodarone],91.5
12,O=C(Cc1ccccc1)Nc1cccc(C(=O)Nc2ccccc2C(=O)O)c1,115
13,CCN1CCCC1CNC(=O)c1cc(S(N)(=O)=O)ccc1OC (centres undefined) [Sulpiride],92.8
14,COc1ccc(-c2ccc3cc(C(=O)O)ccc3c2)cc1C12CC3CC(CC(C3)C1)C2 [Adapalene],105
15,COc1ccc(-c2cc(=O)c3c(OC)c(OC)c(OC)c(OC)c3o2)cc1 [Tangeretin (Tangeritin)],99.4
16,CCO/C(O)=C1\C(C)=NC(c2ccccc2)=C(C(=O)OCc2ccc([N+](=O)[O-])cc2)C1C#Cc1ccccc1 (centres undefined),104
17,O=C(O)c1ccc(C=C2SC(=S)N(c3cccc(C(F)(F)F)c3)C2=O)cc1,101
18,CC12CC3CC(C)(C1)CC(N)(C3)C2 [Memantine Hydrochloride],108
19,CC12CC3CC(C)(C1)CC(N)(C3)C2 [Memantine hydrochloride],103
20,CN1C(C(=O)Nc2ccccn2)=C(O)c2sc(Cl)cc2S1(=O)=O [Lornoxicam (Xefo)],89.1

row,SMILES,nuclei count
1,"N[C@@H](Cc1cc(I)c(O)c(I)c1)C(=O)O [3,5-Diiodo-L-tyrosine]",105
2,O=C(Nc1cccnc1)N1CCC(Cc2cccc(Oc3ccc(C(F)(F)F)cn3)c2)CC1,94.7
3,O=C(Nc1ccc([N+](=O)[O-])cc1Cl)c1cc(Cl)ccc1O [Niclosamide],79.1 ± 22
4,Cc1cc(C)nc(NS(=O)(=O)c2ccc(NC(=S)NC(=O)COc3ccc(Br)cc3Cl)cc2)n1,94.5
5,CCOc1ccc(Cc2nccc3cc(OCC)c(OCC)cc23)cc1OCC [Ethaverine hydrochloride],103
6,C#C[C@]1(O)CC[C@H]2[C@@H]3CCC4=Cc5oncc5C[C@]4(C)[C@H]3CC[C@@]21C [Danazol],102
7,CC(C)c1nc(CN(C)C(=O)N[C@@H](CCN2CCOCC2)C(=O)N[C@H](CC[C@H](Cc2ccccc2)NC(=O)OCc2cncs2)Cc2ccccc2)cs1 [Cobicistat (GS-9350)],96.2
8,Cc1cccc(-c2nn3c(c2-c2ccnc4ccc(C(N)=O)cc24)CCC3)n1,99.8
9,Cc1ccc(C(=O)Nc2cccc(C(F)(F)F)c2)cc1Nc1nc(-c2cccnc2)nc2c1cnn2C,48
10,CCOC(=O)N1c2ccc(C(F)(F)F)cc2[C@@H](N(Cc2cc(C(F)(F)F)cc(C(F)(F)F)c2)C(=O)OC)C[C@H]1CC,101
11,COc1ccc(-c2cc(=O)c3c(OC)c(OC)c(OC)c(OC)c3o2)cc1OC [Nobiletin (Hexamethoxyflavone)],96.6
12,N#Cc1c(Oc2ccc(F)c(NC(=O)Cc3cccc(C(F)(F)F)c3)c2)ccc2nc(NC(=O)C3CC3)sc12,90.1
13,CCC[C@@H]1C[C@@H](C(=O)N[C@@H]([C@H]2O[C@H](SC)[C@H](O)[C@@H](O)[C@H]2O)[C@@H](C)O)N(C)C1 [Lincomycin hydrochloride],97
14,CCC[C@@H]1C[C@@H](C(=O)N[C@@H]([C@H]2O[C@H](SC)[C@H](O)[C@@H](O)[C@H]2O)[C@@H](C)O)N(C)C1 [Lincomycin HCl (Lincocin)],86.4
15,CO[C@H]1C[C@@H]2CC[C@@H](C)[C@@](O)(O2)C(=O)C(=O)N2CCCC[C@H]2C(=O)O[C@H]([C@H](C)C[C@@H]2CC[C@@H](OC(=O)C(C)(CO)CO)[C@H](OC)C2)CC(=O)[C@H](C)/C=C(\C)[C@@H](O)[C@@H](OC)C(=O)[C@H](C)C[C@H](C)/C=C/C=C/C=C/1C,89.2
16,CO[C@H]1C[C@@H]2CC[C@@H](C)[C@@](O)(O2)C(=O)C(=O)N2CCCC[C@H]2C(=O)O[C@H]([C@H](C)C[C@@H]2CC[C@@H](OC(=O)C(C)(CO)CO)[C@H](OC)C2)CC(=O)[C@H](C)/C=C(\C)[C@@H](O)[C@@H](OC)C(=O)[C@H](C)C[C@H](C)/C=C/C=C/C=C/1C [Temsirolimus (Torisel)],85.1
17,CN1CCCN=C1/C=C/c1cccs1 [Pyrantel tartrate],116
18,CCN(CC)CCN[C@@H](C(=O)OCCC(C)C)c1ccccc1 [Camylofine chlorhydrate],102
19,"CC/C=C\C/C=C\C/C=C\C/C=C\C/C=C\C/C=C\CCC(=O)O [Docosa-4Z,7Z,10Z,13Z,16Z,19Z-hexaenoic acid]",96.9

# Source: the supplement of paper PMC8183993
